# Results taken from the supplement of paper PMC8728848.
# The list shows a part of the results.
# B1: Cel5A (Cellvibrio mixtus), A0A266Q9Z0 (protein)
# chain: TSVAGCSGVTAWNSTAVYTGGNEVVRNGVKYQAKWWTQGQDPVTNSSADGVWANKGQC
# Key:
# Experiment in all cases: glycan array binding signal (z-score within array); higher = stronger binding
# Conditions in all cases: glycan notation: IUPAC condensed, linker removed
# [1] = target: Glc(b1-2)Glc(b1-2)Glc(b1-2)Glc(b1-2)Glc(b1-2)Glc(b1-2)Glc(b1-2)Glc(b1-2)Glc(b1-2)Glc(b1-2)Glc
# Procedure, shortened: (§1)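 From the Consortium for Functional Glycomics database, 3228 arrays were curated, keeping only those whose protein sequence was available. Binding is given as a within-array Z-score averaged across arrays sharing a protein sequence and across linkers. Negative Z-scores can be read as non-binding.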
# [2] = target: Glc(b1-2)Glc(b1-2)Glc(b1-2)Glc(b1-2)Glc(b1-2)Glc(b1-2)Glc(b1-2)Glc(b1-2)Glc(b1-2)Glc(b1-2)Glc(b1-2)Glc
# Procedure, shortened: as §1
# [3] = target: Glc(b1-2)Glc(b1-2)Glc(b1-2)Glc(b1-2)Glc(b1-2)Glc(b1-2)Glc(b1-2)Glc(b1-2)Glc(b1-2)Glc(b1-2)Glc(b1-2)Glc(b1-2)Glc
# Procedure, shortened: as §1
# Glc(b1-3)Glc = target: Glc(b1-3)Glc
# Procedure, shortened: as §1
# Glc(b1-3)Glc(b1-3)Glc = target: Glc(b1-3)Glc(b1-3)Glc
# Procedure, shortened: as §1
# [4] = target: Glc(b1-3)Glc(b1-3)Glc(b1-3)Glc
# Procedure, shortened: as §1
# [5] = target: Glc(b1-3)Glc(b1-3)Glc(b1-3)Glc(b1-3)Glc
# Procedure, shortened: as §1
# [6] = target: Glc(b1-3)Glc(b1-3)Glc(b1-3)Glc(b1-3)Glc(b1-3)Glc
# Procedure, shortened: as §1
# [7] = target: Glc(b1-3)Glc(b1-3)Glc(b1-3)Glc(b1-3)Glc(b1-3)Glc(b1-3)Glc
# Procedure, shortened: as §1
# [8] = target: Glc(b1-3)Glc(b1-3)Glc(b1-3)Glc(b1-3)Glc(b1-3)Glc(b1-3)Glc(b1-3)Glc
# Procedure, shortened: as §1
# [9] = target: Glc(b1-3)Glc(b1-3)Glc(b1-3)Glc(b1-3)Glc(b1-3)Glc(b1-3)Glc(b1-3)Glc(b1-3)Glc
# Procedure, shortened: as §1
# [10] = target: Glc(b1-3)Glc(b1-3)Glc(b1-3)Glc(b1-3)Glc(b1-3)Glc(b1-3)Glc(b1-3)Glc(b1-3)Glc(b1-3)Glc
# Procedure, shortened: as §1
# [11] = target: Glc(b1-3)Glc(b1-3)Glc(b1-3)Glc(b1-3)Glc(b1-3)Glc(b1-3)Glc(b1-3)Glc(b1-3)Glc(b1-3)Glc(b1-3)Glc
# Procedure, shortened: as §1
# [12] = target: Glc(b1-3)Glc(b1-3)Glc(b1-3)Glc(b1-3)Glc(b1-3)Glc(b1-3)Glc(b1-3)Glc(b1-3)Glc(b1-3)Glc(b1-3)Glc(b1-3)Glc
# Procedure, shortened: as §1
# [13] = target: Glc(b1-3)Glc(b1-3)Glc(b1-3)Glc(b1-3)Glc(b1-3)Glc(b1-3)Glc(b1-3)Glc(b1-3)Glc(b1-3)Glc(b1-3)Glc(b1-3)Glc(b1-3)Glc
# Procedure, shortened: as §1
# [14] = target: Glc(b1-3)Glc(b1-3)Glc(b1-3)Glc(b1-3)Glc(b1-3)Glc(b1-3)Glc(b1-3)[Glc(b1-6)]Glc(b1-3)Glc
# Procedure, shortened: as §1
# [15] = target: Glc(b1-3)Glc(b1-3)Glc(b1-3)Glc(b1-3)Glc(b1-3)Glc(b1-3)[Glc(b1-6)]Glc(b1-3)Glc(b1-3)Glc
# Procedure, shortened: as §1
# [16] = target: Glc(b1-3)Glc(b1-3)Glc(b1-3)Glc(b1-3)[Glc(b1-6)]Glc(b1-3)Glc(b1-3)Glc(b1-3)Glc(b1-3)Glc
# Procedure, shortened: as §1
# [17] = target: Glc(b1-3)Glc(b1-3)Glc(b1-3)[Glc(b1-6)]Glc(b1-3)Glc(b1-3)Glc(b1-3)Glc(b1-3)[Glc(b1-6)]Glc(b1-3)Glc
# Procedure, shortened: as §1
# [18] = target: Glc(b1-3)Glc(b1-3)[Glc(b1-6)]Glc(b1-3)Glc(b1-3)Glc(b1-3)Glc(b1-3)Glc(b1-3)Glc(b1-3)Glc
# Procedure, shortened: as §1
# Glc(b1-3)Glc(b1-4)Glc = target: Glc(b1-3)Glc(b1-4)Glc
# Procedure, shortened: as §1
# [19] = target: Glc(b1-3)Glc(b1-4)Glc(b1-4)Glc
# Procedure, shortened: as §1
# [20] = target: Glc(b1-3)Glc(b1-4)Glc(b1-6)Glc(b1-4)Glc
# Procedure, shortened: as §1
# [21] = target: Glc(b1-3)[Glc(b1-6)]Glc(a1-3)Glc(b1-3)[Glc(b1-6)]Glc
# Procedure, shortened: as §1
# [22] = target: Glc(b1-3)[Glc(b1-6)]Glc(b1-3)Glc(b1-3)Glc(b1-3)Glc(b1-3)Glc(b1-3)Glc(b1-3)Glc
# Procedure, shortened: as §1
# Glc(b1-4)Glc = target: Glc(b1-4)Glc
# Procedure, shortened: as §1
# Glc(b1-4)Glc(b1-3)Glc = target: Glc(b1-4)Glc(b1-3)Glc
# Procedure, shortened: as §1
# [23] = target: Glc(b1-4)Glc(b1-3)Glc(b1-4)Glc
# Procedure, shortened: as §1
# Glc(b1-4)Glc(b1-4)Glc = target: Glc(b1-4)Glc(b1-4)Glc
# Procedure, shortened: as §1
# [24] = target: Glc(b1-4)Glc(b1-4)Glc(b1-3)Glc
# Procedure, shortened: as §1
# [25] = target: Glc(b1-4)Glc(b1-4)Glc(b1-3)Glc(b1-4)Glc(b1-4)Glc(b1-3)Glc
# Procedure, shortened: as §1
# [26] = target: Glc(b1-4)Glc(b1-4)Glc(b1-4)Glc
# Procedure, shortened: as §1
# [27] = target: Glc(b1-4)Glc(b1-4)Glc(b1-4)Glc(b1-3)Glc
# Procedure, shortened: as §1
# [28] = target: Glc(b1-4)Glc(b1-4)Glc(b1-4)Glc(b1-4)Glc
# Procedure, shortened: as §1
# [29] = target: Glc(b1-4)Glc(b1-4)Glc(b1-4)Glc(b1-4)Glc(b1-4)Glc
# Procedure, shortened: as §1
# [30] = target: Glc(b1-4)Glc(b1-4)Glc(b1-4)Glc(b1-4)Glc(b1-4)Glc(b1-4)Glc
# Procedure, shortened: as §1
# [31] = target: Glc(b1-4)Glc(b1-4)Glc(b1-4)Glc(b1-4)Glc(b1-4)Glc(b1-4)Glc(b1-4)Glc
# Procedure, shortened: as §1
# [32] = target: Glc(b1-4)Glc(b1-4)Glc(b1-4)Glc(b1-4)Glc(b1-4)Glc(b1-4)Glc(b1-4)Glc(b1-4)Glc
# Procedure, shortened: as §1
# [33] = target: Glc(b1-4)Glc(b1-4)Glc(b1-4)Glc(b1-4)Glc(b1-4)Glc(b1-4)Glc(b1-4)Glc(b1-4)Glc(b1-4)Glc
# Procedure, shortened: as §1
# [34] = target: Glc(b1-4)Glc(b1-4)Glc(b1-4)Glc(b1-4)Glc(b1-4)Glc(b1-4)Glc(b1-4)Glc(b1-4)Glc(b1-4)Glc(b1-4)Glc
# Procedure, shortened: as §1
# [35] = target: Glc(b1-4)Glc(b1-4)Glc(b1-4)Glc(b1-4)Glc(b1-4)Glc(b1-4)Glc(b1-4)Glc(b1-4)Glc(b1-4)Glc(b1-4)Glc(b1-4)Glc
# Procedure, shortened: as §1
# [36] = target: Glc(b1-4)Glc(b1-4)Glc(b1-4)Glc(b1-4)Glc(b1-4)Glc(b1-4)Glc(b1-4)Glc(b1-4)Glc(b1-4)Glc(b1-4)Glc(b1-4)Glc(b1-4)Glc
# Procedure, shortened: as §1
# Glc(b1-6)Glc = target: Glc(b1-6)Glc
# Procedure, shortened: as §1
# Glc(b1-6)Glc(b1-6)Glc = target: Glc(b1-6)Glc(b1-6)Glc
# Procedure, shortened: as §1
# [37] = target: Glc(b1-6)Glc(b1-6)Glc(b1-6)Glc
# Procedure, shortened: as §1
# [38] = target: Glc(b1-6)Glc(b1-6)Glc(b1-6)Glc(b1-6)Glc
# Procedure, shortened: as §1
# [39] = target: Glc(b1-6)Glc(b1-6)Glc(b1-6)Glc(b1-6)Glc(b1-6)Glc
# Procedure, shortened: as §1
# [40] = target: Glc(b1-6)Glc(b1-6)Glc(b1-6)Glc(b1-6)Glc(b1-6)Glc(b1-6)Glc
# Procedure, shortened: as §1
# [41] = target: Glc(b1-6)Glc(b1-6)Glc(b1-6)Glc(b1-6)Glc(b1-6)Glc(b1-6)Glc(b1-6)Glc
# Procedure, shortened: as §1
# [42] = target: Glc(b1-6)Glc(b1-6)Glc(b1-6)Glc(b1-6)Glc(b1-6)Glc(b1-6)Glc(b1-6)Glc(b1-6)Glc
# Procedure, shortened: as §1
# [43] = target: Glc(b1-6)Glc(b1-6)Glc(b1-6)Glc(b1-6)Glc(b1-6)Glc(b1-6)Glc(b1-6)Glc(b1-6)Glc(b1-6)Glc
# Procedure, shortened: as §1
# [44] = target: Glc(b1-6)Glc(b1-6)Glc(b1-6)Glc(b1-6)Glc(b1-6)Glc(b1-6)Glc(b1-6)Glc(b1-6)Glc(b1-6)Glc(b1-6)Glc
# Procedure, shortened: as §1
# [45] = target: Glc(b1-6)Glc(b1-6)Glc(b1-6)Glc(b1-6)Glc(b1-6)Glc(b1-6)Glc(b1-6)Glc(b1-6)Glc(b1-6)Glc(b1-6)Glc(b1-6)Glc(b1-6)Glc(b1-6)Glc(b1-6)Glc
# Procedure, shortened: as §1
# [46] = target: Man(b1-4)Man(b1-4)Man(b1-4)Man
# Procedure, shortened: as §1
# [47] = target: Man(b1-4)Man(b1-4)Man(b1-4)Man(b1-4)Man
# Procedure, shortened: as §1
# [48] = target: Man(b1-4)Man(b1-4)Man(b1-4)Man(b1-4)Man(b1-4)Man
# Procedure, shortened: as §1
# [49] = target: Xyl(b1-4)Xyl(b1-4)Xyl(b1-4)Xyl(b1-4)Xyl
# Procedure, shortened: as §1
# [50] = target: Xyl(b1-4)Xyl(b1-4)Xyl(b1-4)Xyl(b1-4)Xyl(b1-4)Xyl
# Procedure, shortened: as §1
binder,measurement,setting,value
B1,glycan array binding signal (z-score),[1],1.13
same,glycan array binding signal (z-score),[2],0.794
same,glycan array binding signal (z-score),[3],1.13
same,glycan array binding signal (z-score),Glc(b1-3)Glc,-0.499
same,glycan array binding signal (z-score),Glc(b1-3)Glc(b1-3)Glc,-0.257
same,glycan array binding signal (z-score),[4],1
same,glycan array binding signal (z-score),[5],0.939
same,glycan array binding signal (z-score),[6],0.723
same,glycan array binding signal (z-score),[7],0.483
same,glycan array binding signal (z-score),[8],2.06
same,glycan array binding signal (z-score),[9],1.42
same,glycan array binding signal (z-score),[10],1.21
same,glycan array binding signal (z-score),[11],1.25
same,glycan array binding signal (z-score),[12],1.84
same,glycan array binding signal (z-score),[13],0.966
same,glycan array binding signal (z-score),[14],1.97
same,glycan array binding signal (z-score),[15],1.47
same,glycan array binding signal (z-score),[16],1.41
same,glycan array binding signal (z-score),[17],1.19
same,glycan array binding signal (z-score),[18],2.2
same,glycan array binding signal (z-score),Glc(b1-3)Glc(b1-4)Glc,-0.136
same,glycan array binding signal (z-score),[19],0.834
same,glycan array binding signal (z-score),[20],1.37
same,glycan array binding signal (z-score),[21],2.44
same,glycan array binding signal (z-score),[22],0.587
same,glycan array binding signal (z-score),Glc(b1-4)Glc,-0.392
same,glycan array binding signal (z-score),Glc(b1-4)Glc(b1-3)Glc,0.442
same,glycan array binding signal (z-score),[23],1.38
same,glycan array binding signal (z-score),Glc(b1-4)Glc(b1-4)Glc,0.459
same,glycan array binding signal (z-score),[24],1.38
same,glycan array binding signal (z-score),[25],1.58
same,glycan array binding signal (z-score),[26],0.357
same,glycan array binding signal (z-score),[27],1.17
same,glycan array binding signal (z-score),[28],0.113
same,glycan array binding signal (z-score),[29],-0.176
same,glycan array binding signal (z-score),[30],0.429
same,glycan array binding signal (z-score),[31],0.589
same,glycan array binding signal (z-score),[32],1.64
same,glycan array binding signal (z-score),[33],1.49
same,glycan array binding signal (z-score),[34],0.954
same,glycan array binding signal (z-score),[35],0.533
same,glycan array binding signal (z-score),[36],0.785
same,glycan array binding signal (z-score),Glc(b1-6)Glc,-0.52
same,glycan array binding signal (z-score),Glc(b1-6)Glc(b1-6)Glc,-0.261
same,glycan array binding signal (z-score),[37],0.013
same,glycan array binding signal (z-score),[38],0.234
same,glycan array binding signal (z-score),[39],0.329
same,glycan array binding signal (z-score),[40],0.052
same,glycan array binding signal (z-score),[41],-0.107
same,glycan array binding signal (z-score),[42],-0.24
same,glycan array binding signal (z-score),[43],-0.113
same,glycan array binding signal (z-score),[44],-0.553
same,glycan array binding signal (z-score),[45],-0.119
same,glycan array binding signal (z-score),[46],-0.854
same,glycan array binding signal (z-score),[47],-0.556
same,glycan array binding signal (z-score),[48],-0.777
same,glycan array binding signal (z-score),[49],-0.71
same,glycan array binding signal (z-score),[50],-0.672
